From PubChem BioAssay AID504332 (National Center for Advancing Translational Sciences (NCATS), 2011)
About 31,000 (8.9%) of roughly 350,000 compounds were called active. The shares of active, inactive and inconclusive entries below differ from those in the screen. The call rests on the fitted dose curve; in most records, active means well fitted inhibition curve with a large enough effect; inconclusive means small, poorly fitted or top-dose-only effect; inactive means no such curve, though single readings can be large or run the other way. Potencies of inconclusive entries are doubtful fits and often do not repeat.

target: Histone-lysine N-methyltransferase EHMT2 (Homo sapiens) (UniProt Q96KQ7); test: qHTS Assay for Inhibitors of Histone Lysine Methyltransferase G9a; details: G9a H3K9 monomethylation, AlphaScreen, 2 h; activity, negative = inhibition: at 59 µM (top of the series) unless noted; further: nearly all actives have a fitted effect of over 75% in size
Outline: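 Methyltransferase reactions run at room temperature for 2 h (20 nM enzyme, 500 nM biotin-H3K9 peptide, 20 uM SAM) after a 15 min compound preincubation; product detected by AlphaScreen beads and anti-H3K9me1 antibody.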
On the % scale 0 is the no-effect control and ±100 the full control effect; potency means the concentration at half of the fitted maximal effect; tags describe the fitted curve by direction and shape.

Chain of UniProt Q96KQ7 (Q96KQ7 whole entry, looked up): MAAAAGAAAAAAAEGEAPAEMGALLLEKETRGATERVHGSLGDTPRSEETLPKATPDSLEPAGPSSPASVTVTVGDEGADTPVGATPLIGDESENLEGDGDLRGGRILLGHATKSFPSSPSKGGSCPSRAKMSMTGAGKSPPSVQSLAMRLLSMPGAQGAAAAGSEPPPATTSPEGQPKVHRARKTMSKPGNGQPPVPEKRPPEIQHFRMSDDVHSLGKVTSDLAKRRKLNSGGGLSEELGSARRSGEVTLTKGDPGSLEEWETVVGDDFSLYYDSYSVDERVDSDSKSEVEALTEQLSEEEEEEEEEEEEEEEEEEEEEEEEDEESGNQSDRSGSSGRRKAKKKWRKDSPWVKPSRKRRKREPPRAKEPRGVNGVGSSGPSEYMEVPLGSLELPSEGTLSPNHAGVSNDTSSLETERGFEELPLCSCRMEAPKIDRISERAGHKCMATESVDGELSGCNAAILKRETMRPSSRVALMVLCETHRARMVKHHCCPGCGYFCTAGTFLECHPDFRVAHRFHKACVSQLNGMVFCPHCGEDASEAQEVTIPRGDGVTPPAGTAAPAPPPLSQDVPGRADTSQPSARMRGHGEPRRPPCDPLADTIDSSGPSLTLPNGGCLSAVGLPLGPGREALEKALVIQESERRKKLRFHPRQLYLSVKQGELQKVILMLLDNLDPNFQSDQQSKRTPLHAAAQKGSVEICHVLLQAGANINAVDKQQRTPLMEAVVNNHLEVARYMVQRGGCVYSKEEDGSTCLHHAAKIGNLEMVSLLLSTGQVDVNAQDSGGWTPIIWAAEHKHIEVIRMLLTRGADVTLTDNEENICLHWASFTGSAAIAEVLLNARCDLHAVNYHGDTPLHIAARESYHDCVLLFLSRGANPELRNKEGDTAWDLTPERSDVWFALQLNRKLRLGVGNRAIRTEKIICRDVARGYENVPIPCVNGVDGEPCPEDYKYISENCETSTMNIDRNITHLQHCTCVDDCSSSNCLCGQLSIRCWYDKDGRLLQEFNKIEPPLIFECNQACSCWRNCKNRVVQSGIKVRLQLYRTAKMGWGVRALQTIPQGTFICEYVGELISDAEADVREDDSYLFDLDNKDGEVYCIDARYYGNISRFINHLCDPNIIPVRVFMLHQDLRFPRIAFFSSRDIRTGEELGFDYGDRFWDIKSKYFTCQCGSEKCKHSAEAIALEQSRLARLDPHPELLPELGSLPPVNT

| SMILES | Potency | activity, negative = inhibition |
| --- | --- | --- |
| Cc1coc(NC(=O)CSc2nc(-c3ccncc3)cc(C(F)(F)F)c2C#N)n1 | inconclusive: 50.1 µM [inhibitor, partial curve] | – |
| CC(C)c1nc2ccccn2c1NC1CCCCC1 | inconclusive: 89.1 µM [inhibitor, single point] | – |
| O=C(O)c1ccc(-c2nnn(Cc3cccc(C(F)(F)F)c3)n2)cc1 | – | inactive: 8.31% [at 102 µM] |
| CCOc1ccc(NC(=O)c2ccc(NC(=O)COC(=O)Cc3ccc(OC)cc3)cc2)cc1 | inconclusive: 70.8 µM [inhibitor, single point] | – |
| CN(CC(=O)Nc1c(Cl)cccc1Cl)C(=O)CC1OC(=O)c2ccccc21 (centres undefined) | – | inactive: -2.24% |
| Cc1nn(-c2ccccc2)c(N)c1N=Nc1cccc(S(=O)(=O)N2CCOCC2)c1 | – | inconclusive: -81.8% [inhibitor] |
| COc1cc2c(cc1OC)CN(CC(=O)NC(=O)NC1CCCCC1)CC2 | inconclusive: 89.1 µM [inhibitor, partial curve, poor fit] | – |
| OCCN(Cc1ccccc1)Cc1ccc(F)c(F)c1 | inconclusive: 0.891 µM [inhibitor, single point] | – |
| COc1ccc(C(=O)C2CCCN(S(=O)(=O)c3ccc(C(C)=O)cc3)C2)c(C)c1 (centres undefined) | inconclusive: 89.1 µM [inhibitor, single point] | – |
| O=C(CCc1ccccc1)Nc1ncc([N+](=O)[O-])s1 | inconclusive: 28.2 µM [inhibitor, single point] | – |
| CCN(CC(=O)Nc1cc(C)nn1-c1nc(C)cc(C)n1)Cc1ccccc1 | – | inactive: 6.54% [at 102 µM] |
| CC(NC1CCCC1)C(=O)Nc1ccccc1-c1ccccc1 (centres undefined) | – | inconclusive: -79% [inhibitor] |
| COc1ccccc1NC(=S)NC(=O)/C=C/c1ccco1 | inconclusive: 14.1 µM [inhibitor, partial curve, poor fit] | – |
| Cc1ccc(C(=O)c2c(NC(=O)c3ccccc3C)sc(C)c2C)cc1 | – | inconclusive: -90.1% [inhibitor] |
| O=C(C[n+]1cc(-c2ccccc2)n2c1CCC2)Nc1nc(-c2ccccc2)cs1 | inconclusive: 89.1 µM [inhibitor, single point] | – |
| CCOc1cc(/C=C2\CCC/C(=C\c3cc(Cl)c(O)c(OCC)c3)C2=O)cc(Cl)c1O | – | inactive: -7.1% |
| CC1(C)CC1C(=O)Nc1ccc([N+](=O)[O-])cc1Br (centres undefined) | – | inactive: -21.5% [at 102 µM] |
| O=C(OCC(=O)N(Cc1ccccc1)C1CCS(=O)(=O)C1)c1cc2c(s1)CCCC2 (centres undefined) | inconclusive: 39.8 µM [inhibitor, single point] | – |
| CCOC(=O)c1ccc(CC(=O)c2oc3cc(O)ccc3c2C)o1 | inconclusive: 25.1 µM [inhibitor, single point] | – |
| FC(F)(F)c1ccccc1-c1nccc(-n2ccnc2)n1 | – | inactive: -10.1% [at 0.501 µM] |
| Cc1nc(CS(=O)c2ccc(Cl)cc2)cc(N2CCOCC2)n1 (centres undefined) | – | inactive: 15.1% |
| COc1ccc(CN(C)CC(O)COC(c2ccc(OC)cc2)c2ccc(OC)cc2)cc1 (centres undefined) | – | inactive: 26.5% [at 102 µM] |
| CCc1ccccc1NC(=O)N1CCOc2ccccc21 | – | inactive: -21.3% |
| O=C(Cn1ncc2c([nH]c3ccccc32)c1=O)NCCCN1CCN(c2ccc(F)cc2)CC1 | – | inactive: -5.9% |
| CN(C)S(=O)(=O)c1ccc(NCC2COc3ccccc3O2)c([N+](=O)[O-])c1 (centres undefined) | inconclusive: 31.6 µM [inhibitor, single point] | – |

| SMILES | Potency | activity, negative = inhibition |
| --- | --- | --- |
| O=C(CN1C(=O)/C(=C2\SC(=S)N(C3CCS(=O)(=O)C3)C2=O)c2ccccc21)Nc1ccc(F)cc1 (centres undefined) | active: 20 µM | – |
| CN(C)S(=O)(=O)c1cccc(NC(=O)COc2cccc(C#N)c2)c1 | inconclusive: 89.1 µM [inhibitor, single point] | – |
| O=C(NCC1COc2ccccc2O1)c1cccc(S(=O)(=O)N2CCOCC2)c1 (centres undefined) | – | inactive: -2.09% [at 2.33 µM] |
| CN(Cc1ccccc1)C(=O)c1nc2ccccn2c1CN1CCCC1c1nccs1 (centres undefined) | inconclusive: 79.4 µM [inhibitor, partial curve, poor fit] | – |
| COc1cc(OC)c(-n2c(C)cc(C=O)c2C)cc1Cl | – | inactive: -24.2% [at 102 µM] |
| COc1ccc(OC)c(NC(=O)CSc2nc(=O)n(CCN(C)C)c3c2CCC3)c1 | – | inactive: -42.6% |
| CN(C)S(=O)(=O)c1cc(NC(=O)COC(=O)c2ccc3c(c2)OCO3)ccc1Cl | – | inactive: -11.3% [at 102 µM] |
| S=c1[nH]cc(Cc2ccccc2)s1 | active: 1.78 µM | – |
| COc1ccc(OCc2nc(C#N)c(N3CCN(c4ccc(OC)cc4)CC3)o2)cc1 | active: 11.2 µM | – |
| CCOC(=O)CN1C(=O)C(O)(c2c(C)[nH]c3ccccc23)c2ccccc21 (centres undefined) | – | inactive: 2.82% [at 12.7 µM] |
| CCC(C)N(C(=O)COc1ccc(Cl)c2cccnc12)C1CCS(=O)(=O)C1 (centres undefined) | inconclusive: 1.78 µM [inhibitor, full curve, poor fit] | – |
| O=C(Nc1cccc(S(=O)(=O)N2CCCCC2)c1)c1ccc2c(=O)n3c(nc2c1)CCCCC3 | inconclusive: 79.4 µM [inhibitor, partial curve, poor fit] | – |
| CC(C)C(OC(=O)c1cccs1)C(=O)NCc1ccccc1 (centres undefined) | – | inactive: -6.79% [at 102 µM] |
| O=C(Oc1cccnc1)c1cccc(Cl)c1 | inconclusive: 56.2 µM [inhibitor, partial curve, poor fit] | – |
| c1ccc2c3c(c(CN4CCCC4)cc2c1)COC3 | inconclusive: 50.1 µM [inhibitor, partial curve] | – |
| COc1ccc(-c2noc(CSc3nc(-c4ccccc4)cc(=O)[nH]3)n2)cc1 | active: 39.8 µM | – |
| CCCn1c2ccccc2c2cnn(CC(=O)Nc3cc(C)c(Cl)cc3OC)c(=O)c21 | – | inactive: -13.9% |
| Cc1ccc(NC2(C#N)C(=O)Nc3ccccc32)cc1C (centres undefined) | inconclusive: 6.31 µM [inhibitor, partial curve, poor fit] | – |
| COc1ccc(C(C#N)N2CCC(c3ccccc3)=N2)cc1 (centres undefined) | active: 35.5 µM | – |
| CCc1ccc(-n2c(=O)c3c4c(sc3n(Cc3ccccc3C#N)c2=O)CCCC4)cc1 | – | inactive: 16% |
| CCOCCc1c(O)nc(SCCOc2ccc(C)c(C)c2)[nH]c1=O | – | inactive: -7.24% [at 102 µM] |
| O=C(O)/C=C/c1cnc2ccccc2n1 | inconclusive: 79.4 µM [inhibitor, partial curve, poor fit] | – |
| Cc1ccc(NC(=O)/C=C/c2ccco2)nc1 | – | inactive: 8.85% |
| c1ccc(Cn2nnnc2C(c2cccs2)N2CCCCCC2)cc1 (centres undefined) | inconclusive: 28.2 µM [inhibitor, single point] | – |
| COc1ccc(OCC(O)CN(C2CCCCC2)C2CCCCC2)cc1 (centres undefined) | inconclusive: 70.8 µM [inhibitor, single point] | – |

| SMILES | Potency | activity, negative = inhibition |
| --- | --- | --- |
| O=C(NCCn1cccc1)c1cccc2ccccc12 | inconclusive: 28.2 µM [inhibitor, single point] | – |
| CC1Cc2cc(S(=O)(=O)N3CCC(C(N)=O)CC3)ccc2N1C(=O)C1CC1 (centres undefined) | – | inconclusive: -107% [inhibitor] |
| COc1ccc(N(C(=O)c2cnccn2)C(C(=O)NC2CCCCC2)c2ccc(O)cc2)cc1 (centres undefined) | inconclusive: 0.251 µM [inhibitor, partial curve, poor fit] | – |
| Cc1ccc(S(=O)(=O)N(C)C)cc1-n1c(SCC(=O)Nc2ccc(F)cc2)nc2ccccc2c1=O | inconclusive: 89.1 µM [inhibitor, single point] | – |
| CCOC(=O)c1csc(NC(=O)CC2CCCC2)n1 | – | inactive: -4.01% [at 102 µM] |
| O=C(Nc1ccc2c(c1)OCO2)N1CCN(c2ccccc2Cl)CC1 | inconclusive: 79.4 µM [inhibitor, single point] | – |
| O=C1C(=O)N(c2ccccn2)C(c2cccc([N+](=O)[O-])c2)/C1=C(/O)c1ccc(Br)cc1 (centres undefined) | – | inactive: 21.7% [at 0.501 µM] |
| Cc1ccc(O)c(C(=O)c2cnc(/N=C(\N)N(C)C)nc2)c1 | inconclusive: 89.1 µM [inhibitor, single point] | – |
| O=C1Nc2ccccc2OC1CC(=O)N1CCCC1 (centres undefined) | inconclusive: 31.6 µM [inhibitor, partial curve, poor fit] | – |
| Cc1cc(S(=O)(=O)N2CCCC(N(C)CCc3ccccn3)C2)c(C)s1 (centres undefined) | active: 50.1 µM | – |
| Cc1cc(Nc2ccccc2F)n2nc(-c3ccccc3)nc2n1 | – | inactive: 9.77% |
| COc1cccc(C2C(C(=O)OC(C)C)=C(C)Nc3ncnn32)c1 (centres undefined) | inconclusive: 89.1 µM [inhibitor, partial curve, poor fit] | – |
| CC1(c2ccc3ccccc3c2)NC(=O)N(CC(=O)N2CCN(c3ccccc3O)CC2)C1=O (centres undefined) | – | inactive: 4.97% [at 102 µM] |
| Cc1ccc(NC(=O)C(=O)NCC(c2cccnc2)N2CCN(Cc3ccccc3)CC2)cc1C (centres undefined) | – | inactive: -2.72% |
| COCc1cc(=O)[nH]c(-c2ccccc2OC(F)(F)F)n1 | – | inactive: 1.07% [at 102 µM] |
| CCCCOc1cccc(C(=O)Nc2ccccc2N2CCCC2)c1 | inconclusive: 50.1 µM [inhibitor, partial curve, poor fit] | – |
| O=Cc1ccc(N2CCCC2)c([N+](=O)[O-])c1 | inconclusive: 31.6 µM [inhibitor, single point] | – |
| O=c1cc(-c2ccccc2)[nH]n1-c1nc2ccccc2[nH]1 | – | inactive: -52.8% [at 102 µM] |
| Brc1cccc(OCCN2CCCCC2)c1 | active: 7.08 µM | – |
| CS/C(=N\S(=O)(=O)c1ccc(N)cc1)NS(=O)(=O)c1cccs1 | inconclusive: 28.2 µM [inhibitor, single point] | – |
| Cc1ccc(N/C(=C\C(=O)c2ccccc2)C(=O)O)cc1 | – | inconclusive: -68.9% [inhibitor] [at 12.7 µM] |
| O=C(NC1CCCC1)C(c1ccccc1)N(Cc1ccccc1)C(=O)c1csnn1 (centres undefined) | – | inactive: 19.7% [at 102 µM] |
| COc1ccccc1-c1nn2c(-c3ccco3)nnc2s1 | inconclusive: 22.4 µM [inhibitor, partial curve, poor fit] | – |
| CCn1ccc(C(=O)NC2=C(C#N)CCC2)n1 | inconclusive: 70.8 µM [inhibitor, partial curve] | – |
